{
  "source": "paper PMC10726135",
  "note": "The other results are listed elsewhere or left out. At the low end of the ranking, values are background and their order means little. Measured with an extract: partners may take part in the binding.",
  "data": [
    {"molecular_target": "T1, HNF4alpha8 (COS-7 nuclear extract) (UniProt P41235-5)", "T1 sequence": "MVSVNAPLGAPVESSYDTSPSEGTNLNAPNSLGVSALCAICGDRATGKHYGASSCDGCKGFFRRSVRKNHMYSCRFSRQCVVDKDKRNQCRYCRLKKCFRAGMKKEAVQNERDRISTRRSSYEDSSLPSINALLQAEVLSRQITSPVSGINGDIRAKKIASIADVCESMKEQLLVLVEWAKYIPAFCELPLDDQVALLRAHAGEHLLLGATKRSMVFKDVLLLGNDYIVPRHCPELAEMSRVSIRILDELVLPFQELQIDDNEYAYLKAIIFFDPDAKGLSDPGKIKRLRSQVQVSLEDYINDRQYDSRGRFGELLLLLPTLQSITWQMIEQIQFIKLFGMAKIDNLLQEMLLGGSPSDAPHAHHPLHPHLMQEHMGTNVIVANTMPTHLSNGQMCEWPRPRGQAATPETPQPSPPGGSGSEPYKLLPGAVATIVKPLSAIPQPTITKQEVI", "test": "protein-binding microarray", "settings": "COS-7 nuclear extract on double-stranded Agilent 4x180k PBM; binding buffer, salt, pH and temperature not given; high values mean tight binding; double strand, one strand shown; sequences stand for … in …GCCTAGGGAGATTAGAGTATCGGTCGA", "values": [
      {"sequence": "CTGGTGATCTTTGTTAGACCCTTATCAGTA", "binding signal (log2 normalized intensity)": 2.07},
      {"sequence": "ACAGTTCTGATACATTGGACAACTGTACTT", "binding signal (log2 normalized intensity)": 2.21},
      {"sequence": "CATTTTTGACCTTCAGCATCTTCAACTGTG", "binding signal (log2 normalized intensity)": 3.46},
      {"sequence": "GTTCAGCGCGTCTTAGCACTCACCCAATAA", "binding signal (log2 normalized intensity)": -0.955},
      {"sequence": "TTTCTGTCCAGAGTTTAAATGACCTCTGCC", "binding signal (log2 normalized intensity)": 4.72},
      {"sequence": "ATACACTTTCCGTACTTTTCATCTGATCAG", "binding signal (log2 normalized intensity)": 1.41},
      {"sequence": "ACACTCATCAGGTGAGATAAGAAGACTCCA", "binding signal (log2 normalized intensity)": -1.32},
      {"sequence": "GGATAAGCATGGAGATGAGTGGGTTCACTT", "binding signal (log2 normalized intensity)": 1.94},
      {"sequence": "TGGGCCACCTGCCATCATTTTCTGACCAGG", "binding signal (log2 normalized intensity)": -0.0408},
      {"sequence": "GAGGCCATATCACAGGAGAAAACAGCACAA", "binding signal (log2 normalized intensity)": -1.37},
      {"sequence": "TTATCTTCAGGTTTGCTAATATCTGATGTT", "binding signal (log2 normalized intensity)": 0.362},
      {"sequence": "CCAAGGCGTATGAAGCTTTGACCCTGTTTT", "binding signal (log2 normalized intensity)": 3.72},
      {"sequence": "TGGTTCACACCCCACGTACATTGCACCCTC", "binding signal (log2 normalized intensity)": 4.44},
      {"sequence": "TCCATAATCCCCGAATGTCCAGACTGTGCA", "binding signal (log2 normalized intensity)": 2.09},
      {"sequence": "TGGGCCTTCAGCTTGAAAACACAACAAAAG", "binding signal (log2 normalized intensity)": -1.35},
      {"sequence": "GGTACAGCAGCATAAAGGACTTTCAACCCT", "binding signal (log2 normalized intensity)": 4.97},
      {"sequence": "GATCTTTGACCGCTGCCTCCCACCCCCACG", "binding signal (log2 normalized intensity)": 5.6},
      {"sequence": "GTCCTCACCCAGAACTTTGACCGTTTGATT", "binding signal (log2 normalized intensity)": 4.1},
      {"sequence": "TGTTAGCAGAGCAATTACTCATGTCCTCAG", "binding signal (log2 normalized intensity)": -1.15},
      {"sequence": "AGGATTATAGTTTATCTACCTTTGTACCTT", "binding signal (log2 normalized intensity)": 6.1},
      {"sequence": "TTTAGCAGCACCATCCTACAGGGTATGAAT", "binding signal (log2 normalized intensity)": -1.32},
      {"sequence": "TATTTTATAGAAAAGGAAAGTGAGGCCTGG", "binding signal (log2 normalized intensity)": 0.0311},
      {"sequence": "GGGAGGAGGGGGGAGGGTCGGCAACGGTGA", "binding signal (log2 normalized intensity)": -1.37},
      {"sequence": "TGGTTTTATCAGCTGAGGCCATTGCCTTTC", "binding signal (log2 normalized intensity)": 0.965},
      {"sequence": "TTTGTACACACAGCACTGCAAACAGTGAGC", "binding signal (log2 normalized intensity)": -1.13},
      {"sequence": "GTCAAACCTTTGACCCTTTATAATCCCCTA", "binding signal (log2 normalized intensity)": 4.71},
      {"sequence": "TTACTGAACGCTGCGCATACCATATGCATT", "binding signal (log2 normalized intensity)": -1.35},
      {"sequence": "GTGCCTGTGCATACCTGGAATTGTACACAT", "binding signal (log2 normalized intensity)": 0.533},
      {"sequence": "GGGCGAAAAAGACGCGGTCTCAGTTAACGG", "binding signal (log2 normalized intensity)": -1.32},
      {"sequence": "GAAAGAGACCTTTGACATCACCTAACTTGT", "binding signal (log2 normalized intensity)": 2.67},
      {"sequence": "ATCTTATCAGCAAGGGCATTTGCGTAGGCT", "binding signal (log2 normalized intensity)": -0.794},
      {"sequence": "GAGTCCACCACTGACCTTAGACCCTCAGGC", "binding signal (log2 normalized intensity)": 5.03},
      {"sequence": "GCTCCTAGCCCTGCAGTGTATGACACAGCC", "binding signal (log2 normalized intensity)": -1.23},
      {"sequence": "GGAAAAAGGGAGATAGGTTAAAATTTATCT", "binding signal (log2 normalized intensity)": -1.02},
      {"sequence": "TAGTATGTGCTAGGCATTTTATAGTATTTC", "binding signal (log2 normalized intensity)": 0.52},
      {"sequence": "GAGGAGTCAAAAGGTGTATGTGGACTTTCA", "binding signal (log2 normalized intensity)": 5.3},
      {"sequence": "CAGTTACAAACAAAACAAACTAAACACAGT", "binding signal (log2 normalized intensity)": -1.43},
      {"sequence": "TCTCTTCCCAACAGGAGATTACTTCAAGGC", "binding signal (log2 normalized intensity)": -1.31},
      {"sequence": "GCTTGTTCTCTCCCCCAACCCCACCTTCAT", "binding signal (log2 normalized intensity)": 4.61},
      {"sequence": "AACTGGCTTTAAGAGGAATGCTTTGAGCCA", "binding signal (log2 normalized intensity)": -1.37},
      {"sequence": "ATTGGAGAGCATCTTGGACTTGGGACTCTG", "binding signal (log2 normalized intensity)": 6.7},
      {"sequence": "AGCCTGTTCCGACCTTAGTACTCTGCCATG", "binding signal (log2 normalized intensity)": 3.39},
      {"sequence": "AAAAAATTACTGACCCTTGCACTGTAAGAT", "binding signal (log2 normalized intensity)": 4.14},
      {"sequence": "GTTTGACCTTTCACCCAGAAAAGGCTGTAA", "binding signal (log2 normalized intensity)": 4.63},
      {"sequence": "AGCTGCTAAGTCTTTCCACACAGCCTGTCA", "binding signal (log2 normalized intensity)": -1.32},
      {"sequence": "GAGAGGGGGAGTGAAGGTTAGTACTCAGAA", "binding signal (log2 normalized intensity)": -0.819},
      {"sequence": "GAATATCTCAGCAGCCTGGCTGCTCGCAGT", "binding signal (log2 normalized intensity)": -1.26},
      {"sequence": "CTGTCCTGGACTTTCCTTTGTTGGGAGACT", "binding signal (log2 normalized intensity)": 1.6},
      {"sequence": "TGATCCCCTCTCCTTTGGTGCAAATACCAT", "binding signal (log2 normalized intensity)": 1.67},
      {"sequence": "CTCTAGAGGGCTGCTTATCTAGGATGAGAA", "binding signal (log2 normalized intensity)": -1.32},
      {"sequence": "TCTGATCCCAATTTATCTTTCCAGATTGTT", "binding signal (log2 normalized intensity)": 0.666},
      {"sequence": "CTACATAAGGGTAGAGACCTTTGTTTTGTT", "binding signal (log2 normalized intensity)": 2.44},
      {"sequence": "TATAAGAAACTGCTCCTGCTTGGGAGAACC", "binding signal (log2 normalized intensity)": -1.26},
      {"sequence": "CCTTACCTCCATTAACTAACCTTTGAACCA", "binding signal (log2 normalized intensity)": 7.58},
      {"sequence": "AGGAGGAAGGACACTTAGAGATAAGGTAAC", "binding signal (log2 normalized intensity)": -1.19},
      {"sequence": "TTCTCTGGTCTGCGGTTGTGTAGACGCTCT", "binding signal (log2 normalized intensity)": 0.329},
      {"sequence": "ATTTCAAAGGGAGCATATGTATGTCAGAGT", "binding signal (log2 normalized intensity)": 1.63},
      {"sequence": "ATGAACTTTGACCCACCTACATTGATATTC", "binding signal (log2 normalized intensity)": 5.5},
      {"sequence": "GTTGGACTGAGGACCACATGAGTAAACAAG", "binding signal (log2 normalized intensity)": -1.05},
      {"sequence": "ACTAGGCTACATGATACAGCCTTTTGCCCC", "binding signal (log2 normalized intensity)": 3.9},
      {"sequence": "ATTTGATAAGGGTATGGATTCTGGGACCCA", "binding signal (log2 normalized intensity)": 1.21},
      {"sequence": "CCTCCCGGTCACTACAACAACGGCGGCCCA", "binding signal (log2 normalized intensity)": -1.34},
      {"sequence": "GAGTAACCTGCTTGTTTTCCCAACAGGTGT", "binding signal (log2 normalized intensity)": 0.577},
      {"sequence": "GAAGTGAAGTTACAAAGGTCACGCTCCTGT", "binding signal (log2 normalized intensity)": 4.99},
      {"sequence": "AAGAGAGAGTAGCTCCAAAAGGTGGACAAG", "binding signal (log2 normalized intensity)": -1.33},
      {"sequence": "CCATTCTTGAGGACAGGCCAAATCCAGTAA", "binding signal (log2 normalized intensity)": -1.09},
      {"sequence": "ACTGGATTCTCAGCCTCACCCTGGTGCTGC", "binding signal (log2 normalized intensity)": -1.28},
      {"sequence": "CTGGGGGAGTTTCCTGCCTGGTCCGCCCTT", "binding signal (log2 normalized intensity)": 1.74},
      {"sequence": "GTCTTAATAAGATAATAAGTGACCCAGGAG", "binding signal (log2 normalized intensity)": 2.27},
      {"sequence": "GATAAGGAACTGTTATCAAGTGAGAAACCA", "binding signal (log2 normalized intensity)": -1.21},
      {"sequence": "ACCCAGGCAAAGTCCAGAAATAGCATCACG", "binding signal (log2 normalized intensity)": 1.85},
      {"sequence": "CCTGCCAGCTGTTATGAGTCTGTTGTCTAA", "binding signal (log2 normalized intensity)": 1.13},
      {"sequence": "TGCTTTAGGCCTCAAGACAAACAATAGATA", "binding signal (log2 normalized intensity)": -1.16},
      {"sequence": "GTGGGTATTTGGGGAGTTCTTTCTGCCAGA", "binding signal (log2 normalized intensity)": 1.09},
      {"sequence": "ACTATTCCTTTGTTTAGACTTGGGGCCAAA", "binding signal (log2 normalized intensity)": 1.51},
      {"sequence": "TTAGGGGTTTGTCCAAGAAAAAGGAGCAGA", "binding signal (log2 normalized intensity)": -0.959},
      {"sequence": "AGGCCATTGCCTTTCTCTGTGTGTATGTGT", "binding signal (log2 normalized intensity)": 2.51},
      {"sequence": "TGAATATCTATTATTAGGTACAAACATACT", "binding signal (log2 normalized intensity)": 0.456},
      {"sequence": "AGATCTGGGCAATGTCAACAAATACTGACC", "binding signal (log2 normalized intensity)": 1.67},
      {"sequence": "GGCAGGATGCATGCACTTCATTGTGCACCC", "binding signal (log2 normalized intensity)": 1.62},
      {"sequence": "CACAGTAAGAGACTTCACCATCTGCAAGTG", "binding signal (log2 normalized intensity)": -1.21},
      {"sequence": "AAGATTTATCAGGTCTTTCTTTCAGAACAG", "binding signal (log2 normalized intensity)": 0.553},
      {"sequence": "ATCAAAAACCATTTGACAATTTACAGTGTT", "binding signal (log2 normalized intensity)": -0.415},
      {"sequence": "ACCTTTGAAACATATCCAGAATGTGTTTGC", "binding signal (log2 normalized intensity)": 1.44},
      {"sequence": "AGAAAGCTTTGGACTTTGGGCTGTGTTTTG", "binding signal (log2 normalized intensity)": 5.52},
      {"sequence": "GCCTGAGAATGAGGGGCAGGCTTAGCTGGG", "binding signal (log2 normalized intensity)": -1.38},
      {"sequence": "CATACCAGGCAGAGGGTTAACCCCTATTAA", "binding signal (log2 normalized intensity)": 2.32},
      {"sequence": "GGTTTAGCAAGAATACTGCTGGGTCAGTTT", "binding signal (log2 normalized intensity)": 1.43},
      {"sequence": "CAGTGACCCAAATATGGTCCCTGACCTTAA", "binding signal (log2 normalized intensity)": 4.16},
      {"sequence": "ATCTAAGTGGGTCTAGGTTCTGGGGTGATT", "binding signal (log2 normalized intensity)": 1.54},
      {"sequence": "ACACACCAAAACTCTCTCTCTGTGTCACAT", "binding signal (log2 normalized intensity)": -0.0599},
      {"sequence": "CAGTGACTAGCAGATTCTGTGTGGTAAAAG", "binding signal (log2 normalized intensity)": 0.699},
      {"sequence": "TCTTGGCAGTGATCAGTGTTGAGAATCCCT", "binding signal (log2 normalized intensity)": 0.126}
    ]}
  ]
}
